These are yes or no findings as the source states them, for the method shown. Some binding calls cover weakened binding; strength is not graded here.

The chains behind the UniProt entries cited, without tags or fusion partners. Where a name states a change or a piece, a line headed by the entry shows the natural chain unless it says otherwise. A line that says so, or that is headed by a name, gives the form on record, which may keep a tag or linker.
UniProt P11802: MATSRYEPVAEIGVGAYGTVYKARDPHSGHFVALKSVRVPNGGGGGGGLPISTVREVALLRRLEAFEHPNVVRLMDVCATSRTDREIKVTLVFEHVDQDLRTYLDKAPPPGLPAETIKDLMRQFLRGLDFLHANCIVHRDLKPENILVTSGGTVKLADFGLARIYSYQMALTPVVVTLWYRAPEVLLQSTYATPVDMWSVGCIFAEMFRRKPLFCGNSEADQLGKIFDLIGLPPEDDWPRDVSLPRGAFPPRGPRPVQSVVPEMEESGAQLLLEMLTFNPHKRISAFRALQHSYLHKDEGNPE
UniProt P24385: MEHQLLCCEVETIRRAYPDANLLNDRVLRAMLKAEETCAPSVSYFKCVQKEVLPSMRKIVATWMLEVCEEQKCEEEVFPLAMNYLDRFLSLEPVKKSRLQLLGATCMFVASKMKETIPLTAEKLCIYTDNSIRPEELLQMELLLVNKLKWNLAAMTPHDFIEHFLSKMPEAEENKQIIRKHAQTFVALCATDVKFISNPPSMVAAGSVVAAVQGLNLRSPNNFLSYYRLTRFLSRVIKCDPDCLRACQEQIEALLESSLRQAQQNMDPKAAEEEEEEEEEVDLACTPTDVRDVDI
VP16-cyclin D1 ΔE (P24385, form named): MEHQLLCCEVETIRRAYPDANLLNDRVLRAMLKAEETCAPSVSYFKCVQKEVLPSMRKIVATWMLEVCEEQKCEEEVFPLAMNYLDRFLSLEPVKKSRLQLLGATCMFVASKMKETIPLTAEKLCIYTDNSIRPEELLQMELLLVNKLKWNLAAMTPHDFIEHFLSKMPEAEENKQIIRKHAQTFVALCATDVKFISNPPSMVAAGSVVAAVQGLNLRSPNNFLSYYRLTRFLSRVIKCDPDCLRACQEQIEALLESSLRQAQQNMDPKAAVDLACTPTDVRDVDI
VP16-cyclin D1 E278/280A (P24385, form named): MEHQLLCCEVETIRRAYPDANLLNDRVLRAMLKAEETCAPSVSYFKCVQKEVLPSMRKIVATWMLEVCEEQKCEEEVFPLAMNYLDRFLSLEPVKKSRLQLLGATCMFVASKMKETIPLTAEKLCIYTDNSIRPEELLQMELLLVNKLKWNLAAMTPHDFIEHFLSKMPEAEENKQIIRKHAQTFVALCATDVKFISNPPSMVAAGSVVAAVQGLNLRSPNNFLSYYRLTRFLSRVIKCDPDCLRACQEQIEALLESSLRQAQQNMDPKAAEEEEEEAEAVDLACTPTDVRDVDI
VP16-cyclin D1 KE (point substitution of K114) (P24385, form named): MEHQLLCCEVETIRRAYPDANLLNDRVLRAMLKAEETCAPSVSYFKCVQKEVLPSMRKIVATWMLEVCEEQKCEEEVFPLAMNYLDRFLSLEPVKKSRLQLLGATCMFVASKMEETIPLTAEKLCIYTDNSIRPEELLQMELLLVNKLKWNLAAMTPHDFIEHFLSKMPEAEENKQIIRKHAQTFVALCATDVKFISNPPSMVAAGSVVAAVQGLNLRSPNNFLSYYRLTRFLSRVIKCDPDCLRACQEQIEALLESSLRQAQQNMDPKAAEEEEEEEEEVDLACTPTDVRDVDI

For this test, the target named is Gal4-CDK4 (human) (UniProt P11802). Description: two-hybrid; mammalian two-hybrid (Promega): Gal4-CDK4 (pBIND), VP16-cyclin D1 (pACT) and pG5-Luc co-transfected into MCF-7 or HEK-293T cells; luciferase read 48 h after transfection.
In the case of “VP16-cyclin D1 ΔE (from UniProt P24385 1-295)”, the binding entry is “binds”.
For “VP16-cyclin D1 E278/280A (from UniProt P24385 1-295)” the value was “binds”.
For “VP16-cyclin D1 E280A (from UniProt P24385 1-295)” the value was “binds”; for “VP16-cyclin D1 wild type (from UniProt P24385 1-295)”, “binds”.
In the case of “VP16-cyclin D1 KE (point substitution of K114) (from UniProt P24385 1-295)”, the binding result is reported as “no binding”.
Under “VP16-cyclin D1 E278A (from UniProt P24385 1-295)” stands “binds”; under “VP16-cyclin D1 C4 (aa179-aa295) (from UniProt P24385 179-295) (domain or fragment)”, “no binding”.

Source of the values: publication PMC10774418, “A cyclin D1 intrinsically disordered domain accesses modified histone motifs to govern gene transcription” (Oncogenesis, 2024).
